# Measured values as given in article PMC12820563.
# This is one part of the list. The list includes weakly bound sequences.
# Target: T1, MBP-FoxP3dN (UniProt Q99JB6)
# T1 sequence: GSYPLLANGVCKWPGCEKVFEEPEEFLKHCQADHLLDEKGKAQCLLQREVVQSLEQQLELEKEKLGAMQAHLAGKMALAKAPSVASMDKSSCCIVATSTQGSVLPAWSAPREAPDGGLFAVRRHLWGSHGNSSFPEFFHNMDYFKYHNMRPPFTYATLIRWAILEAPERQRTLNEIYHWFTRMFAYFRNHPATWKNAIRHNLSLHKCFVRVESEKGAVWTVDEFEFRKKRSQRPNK
# Experiment: PD-seq (MBP pull-down with sequencing)
# Details: 20 mM Tris-HCl pH 7.5, 100 mM NaCl, 1.5 mM MgCl2, 0.4 uM protein, 0.1 uM dsDNA library, 30 min, room temperature, amylose pull-down; high values mean tight binding; double strand, one strand shown
row,Sequence,binding signal (RPM ratio (pull-down/input))
1,GATGATTGTTCTCCCAGCTGATGAATTGCAGCTGTCGAGTAAACAAATTTTCCTAATCTTTCTGTTCAAGCGCCATCTAC,0.961
2,GATGATTGTTCTCCCAGCTGATGAATTAGCGTAGTCGAGTAAACAAATTTTCCTAATCTTTCTGTTCAAGCGCCATCTAC,0.719
3,GATGATTGTTCTCCCAGCTGATGAATTGGTTGACTCGAGTAAACAAATTTTCCTAATCTTTCTGTTCAAGCGCCATCTAC,3.33
4,GATGATTGTTCTCCCAGCTGATGAATTGGCCTTGTCGAGTAAACAAATTTTCCTAATCTTTCTGTTCAAGCGCCATCTAC,0.517
5,GATGATTGTTCTCCCAGCTGATGAATTGTAACTCTCGAGTAAACAAATTTTCCTAATCTTTCTGTTCAAGCGCCATCTAC,0.839
6,GATGATTGTTCTCCCAGCTGATGAATTACCCGCATCGAGTAAACAAATTTTCCTAATCTTTCTGTTCAAGCGCCATCTAC,0.961
7,GATGATTGTTCTCCCAGCTGATGAATTGCTGCTATCGAGTAAACAAATTTTCCTAATCTTTCTGTTCAAGCGCCATCTAC,1.05
8,GATGATTGTTCTCCCAGCTGATGAATTCATAATATCGAGTAAACAAATTTTCCTAATCTTTCTGTTCAAGCGCCATCTAC,0.693
9,GATGATTGTTCTCCCAGCTGATGAATTACTCCACTCGAGTAAACAAATTTTCCTAATCTTTCTGTTCAAGCGCCATCTAC,0.339
10,GATGATTGTTCTCCCAGCTGATGAATTAACAGCGTCGAGTAAACAAATTTTCCTAATCTTTCTGTTCAAGCGCCATCTAC,0.559
11,GATGATTGTTCTCCCAGCTGATGAATTAATGAAATCGAGTAAACAAATTTTCCTAATCTTTCTGTTCAAGCGCCATCTAC,0.31
12,GATGATTGTTCTCCCAGCTGATGAATTATGGTCTTCGAGTAAACAAATTTTCCTAATCTTTCTGTTCAAGCGCCATCTAC,0.688
13,GATGATTGTTCTCCCAGCTGATGAATTAGAGTTATCGAGTAAACAAATTTTCCTAATCTTTCTGTTCAAGCGCCATCTAC,0.768
14,GATGATTGTTCTCCCAGCTGATGAATTCGTTCGGTCGAGTAAACAAATTTTCCTAATCTTTCTGTTCAAGCGCCATCTAC,0.306
15,GATGATTGTTCTCCCAGCTGATGAATTTTCGTCCTCGAGTAAACAAATTTTCCTAATCTTTCTGTTCAAGCGCCATCTAC,0.297
16,GATGATTGTTCTCCCAGCTGATGAATTAGTTTTATCGAGTAAACAAATTTTCCTAATCTTTCTGTTCAAGCGCCATCTAC,2.34
17,GATGATTGTTCTCCCAGCTGATGAATTCCGGTCATCGAGTAAACAAATTTTCCTAATCTTTCTGTTCAAGCGCCATCTAC,0.506
18,GATGATTGTTCTCCCAGCTGATGAATTCGTGGGTTCGAGTAAACAAATTTTCCTAATCTTTCTGTTCAAGCGCCATCTAC,0.697
19,GATGATTGTTCTCCCAGCTGATGAATTATTGCAGTCGAGTAAACAAATTTTCCTAATCTTTCTGTTCAAGCGCCATCTAC,1.18
20,GATGATTGTTCTCCCAGCTGATGAATTGGTTTAGTCGAGTAAACAAATTTTCCTAATCTTTCTGTTCAAGCGCCATCTAC,2.22
21,GATGATTGTTCTCCCAGCTGATGAATTTTCAAAATCGAGTAAACAAATTTTCCTAATCTTTCTGTTCAAGCGCCATCTAC,0.212

row,Sequence,binding signal (RPM ratio (pull-down/input))
1,GATGATTGTTCTCCCAGCTGATGAATTACGCACATCGAGTAAACAAATTTTCCTAATCTTTCTGTTCAAGCGCCATCTAC,1.12
2,GATGATTGTTCTCCCAGCTGATGAATTGGTGATATCGAGTAAACAAATTTTCCTAATCTTTCTGTTCAAGCGCCATCTAC,0.67
3,GATGATTGTTCTCCCAGCTGATGAATTGCGACGCTCGAGTAAACAAATTTTCCTAATCTTTCTGTTCAAGCGCCATCTAC,0.891
4,GATGATTGTTCTCCCAGCTGATGAATTCATCCGTTCGAGTAAACAAATTTTCCTAATCTTTCTGTTCAAGCGCCATCTAC,0.347
5,GATGATTGTTCTCCCAGCTGATGAATTGTTCATGTCGAGTAAACAAATTTTCCTAATCTTTCTGTTCAAGCGCCATCTAC,0.5
6,GATGATTGTTCTCCCAGCTGATGAATTTGTATCCTCGAGTAAACAAATTTTCCTAATCTTTCTGTTCAAGCGCCATCTAC,5.4
7,GATGATTGTTCTCCCAGCTGATGAATTTGCCACATCGAGTAAACAAATTTTCCTAATCTTTCTGTTCAAGCGCCATCTAC,2.39
8,GATGATTGTTCTCCCAGCTGATGAATTCTCAATTTCGAGTAAACAAATTTTCCTAATCTTTCTGTTCAAGCGCCATCTAC,0.298
9,GATGATTGTTCTCCCAGCTGATGAATTCTGGTTTTCGAGTAAACAAATTTTCCTAATCTTTCTGTTCAAGCGCCATCTAC,0.747
10,GATGATTGTTCTCCCAGCTGATGAATTCGCGAAATCGAGTAAACAAATTTTCCTAATCTTTCTGTTCAAGCGCCATCTAC,0.371
11,GATGATTGTTCTCCCAGCTGATGAATTAACTTCGTCGAGTAAACAAATTTTCCTAATCTTTCTGTTCAAGCGCCATCTAC,0.263
12,GATGATTGTTCTCCCAGCTGATGAATTCATGGAGTCGAGTAAACAAATTTTCCTAATCTTTCTGTTCAAGCGCCATCTAC,0.277
13,GATGATTGTTCTCCCAGCTGATGAATTGATGGTTTCGAGTAAACAAATTTTCCTAATCTTTCTGTTCAAGCGCCATCTAC,1.09
14,GATGATTGTTCTCCCAGCTGATGAATTAGTTAGTTCGAGTAAACAAATTTTCCTAATCTTTCTGTTCAAGCGCCATCTAC,4.22
15,GATGATTGTTCTCCCAGCTGATGAATTTCTTTATTCGAGTAAACAAATTTTCCTAATCTTTCTGTTCAAGCGCCATCTAC,1.53
16,GATGATTGTTCTCCCAGCTGATGAATTCTCTCACTCGAGTAAACAAATTTTCCTAATCTTTCTGTTCAAGCGCCATCTAC,0.266
17,GATGATTGTTCTCCCAGCTGATGAATTATATGCATCGAGTAAACAAATTTTCCTAATCTTTCTGTTCAAGCGCCATCTAC,1.56
18,GATGATTGTTCTCCCAGCTGATGAATTGGCGAGCTCGAGTAAACAAATTTTCCTAATCTTTCTGTTCAAGCGCCATCTAC,0.276
19,GATGATTGTTCTCCCAGCTGATGAATTCGAGTCCTCGAGTAAACAAATTTTCCTAATCTTTCTGTTCAAGCGCCATCTAC,0.547
20,GATGATTGTTCTCCCAGCTGATGAATTCGGACGCTCGAGTAAACAAATTTTCCTAATCTTTCTGTTCAAGCGCCATCTAC,0.343
21,GATGATTGTTCTCCCAGCTGATGAATTCGCTTCGTCGAGTAAACAAATTTTCCTAATCTTTCTGTTCAAGCGCCATCTAC,0.562

row,Sequence,binding signal (RPM ratio (pull-down/input))
1,GATGATTGTTCTCCCAGCTGATGAATTCAGGGAATCGAGTAAACAAATTTTCCTAATCTTTCTGTTCAAGCGCCATCTAC,0.177
2,GATGATTGTTCTCCCAGCTGATGAATTGACGGACTCGAGTAAACAAATTTTCCTAATCTTTCTGTTCAAGCGCCATCTAC,0.274
3,GATGATTGTTCTCCCAGCTGATGAATTGGTAAACTCGAGTAAACAAATTTTCCTAATCTTTCTGTTCAAGCGCCATCTAC,0.845
4,GATGATTGTTCTCCCAGCTGATGAATTATATCTATCGAGTAAACAAATTTTCCTAATCTTTCTGTTCAAGCGCCATCTAC,0.73
5,GATGATTGTTCTCCCAGCTGATGAATTTGTAAAATCGAGTAAACAAATTTTCCTAATCTTTCTGTTCAAGCGCCATCTAC,0.357
6,GATGATTGTTCTCCCAGCTGATGAATTGCGCGTCTCGAGTAAACAAATTTTCCTAATCTTTCTGTTCAAGCGCCATCTAC,4.75
7,GATGATTGTTCTCCCAGCTGATGAATTATGGAATTCGAGTAAACAAATTTTCCTAATCTTTCTGTTCAAGCGCCATCTAC,0.747
8,GATGATTGTTCTCCCAGCTGATGAATTAATCCTGTCGAGTAAACAAATTTTCCTAATCTTTCTGTTCAAGCGCCATCTAC,0.311
9,GATGATTGTTCTCCCAGCTGATGAATTAACTAGTTCGAGTAAACAAATTTTCCTAATCTTTCTGTTCAAGCGCCATCTAC,0.318
10,GATGATTGTTCTCCCAGCTGATGAATTTTGATCGTCGAGTAAACAAATTTTCCTAATCTTTCTGTTCAAGCGCCATCTAC,0.454
11,GATGATTGTTCTCCCAGCTGATGAATTACATCCGTCGAGTAAACAAATTTTCCTAATCTTTCTGTTCAAGCGCCATCTAC,0.431
12,GATGATTGTTCTCCCAGCTGATGAATTCTTAGAATCGAGTAAACAAATTTTCCTAATCTTTCTGTTCAAGCGCCATCTAC,0.196
13,GATGATTGTTCTCCCAGCTGATGAATTAATCGTGTCGAGTAAACAAATTTTCCTAATCTTTCTGTTCAAGCGCCATCTAC,0.74
14,GATGATTGTTCTCCCAGCTGATGAATTACTCCTCTCGAGTAAACAAATTTTCCTAATCTTTCTGTTCAAGCGCCATCTAC,0.313
15,GATGATTGTTCTCCCAGCTGATGAATTCCAAACGTCGAGTAAACAAATTTTCCTAATCTTTCTGTTCAAGCGCCATCTAC,0.309
16,GATGATTGTTCTCCCAGCTGATGAATTCTCCAACTCGAGTAAACAAATTTTCCTAATCTTTCTGTTCAAGCGCCATCTAC,0.239
17,GATGATTGTTCTCCCAGCTGATGAATTATTGCCCTCGAGTAAACAAATTTTCCTAATCTTTCTGTTCAAGCGCCATCTAC,0.91
18,GATGATTGTTCTCCCAGCTGATGAATTTCCGGGCTCGAGTAAACAAATTTTCCTAATCTTTCTGTTCAAGCGCCATCTAC,0.194
19,GATGATTGTTCTCCCAGCTGATGAATTCAGGTCGTCGAGTAAACAAATTTTCCTAATCTTTCTGTTCAAGCGCCATCTAC,0.463
20,GATGATTGTTCTCCCAGCTGATGAATTCTCGAGATCGAGTAAACAAATTTTCCTAATCTTTCTGTTCAAGCGCCATCTAC,0.194
21,GATGATTGTTCTCCCAGCTGATGAATTCTCACCGTCGAGTAAACAAATTTTCCTAATCTTTCTGTTCAAGCGCCATCTAC,0.238
